In PubChem BioAssay AID720584 (National Center for Advancing Translational Sciences (NCATS), 2013):
Inconclusive results, whose numbers are uncertain, are shown with a selection of clear calls. No potency is given beside an inconclusive call; the fits are too rough. Activity calls are given as the source filed them. The call rests on the fitted dose curve; in most records, active means well fitted inhibition curve with a large enough effect; inconclusive means small, poorly fitted or top-dose-only effect; inactive means flat fitted curve, though single readings scatter.

tested on: Trypanosoma brucei pyruvate kinase (TbPYK); assay: qHTS of Trypanosoma Brucei Inhibitors: Orthogonal Assay for Cherry-picked Compounds; details: recombinant TbPYK, ADP-Glo luminescence, 60 min; series mostly up to 76.9 µM; further: nearly all actives have a fitted effect of over 75% in size
Outline: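 Enzyme plus substrate was dispensed, compound added by pin tool, then ADP (130 uM final) started the reaction. After 60 min at room temperature, ADP-Glo reagents I and II were added sequentially and luminescence read.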
Potency means the concentration at half of the fitted maximal effect; tags describe the fitted curve by direction and shape.

Question: With `S=C(c1ccc(-c2ccc(Cl)cc2Cl)o1)N1CCCC1` as the molecule, how does the Potency read?
Answer: Its Potency is inconclusive [inhibitor, single point].

Question: With `CCCCOc1ccc(/C=C/C(=O)OCC(=O)NC(=O)NCC(C)C)cc1OCC` as the molecule, how does the Potency read?
Answer: Its Potency is “inactive”.

Question: How did the Potency turn out when `Oc1cc(O)cc(/C=C/c2ccc(O)c(O)c2)c1` was run?
Answer: Its Potency is inconclusive [inhibitor, full curve].

Question: With `CCCNC(=O)N(C)C[C@@H]1Oc2ncc(-c3ccncc3)cc2C(=O)N([C@H](C)CO)C[C@@H]1C` as the molecule, how does the Potency read?
Answer: The Potency was active: 31.6 µM.

Question: `Cc1ccc(/C=C2\C(=O)Nc3ccccc32)o1` was tested. Which Potency did it give?
Answer: The Potency was inconclusive [inhibitor, partial curve].

Question: For `O=C(Nc1nc2ccc(S(=O)(=O)N3CCCC3)cc2s1)c1ccccn1`, which Potency is on record?
Answer: Its Potency is inconclusive [inhibitor, single point].

Question: `COc1ccc(Cc2c(-c3ccco3)nc3ccc(Br)cn23)c(C)c1` was tested. Which Potency did it give?
Answer: The Potency was inconclusive [inhibitor, partial curve, poor fit].

Question: Which Potency does the source give for `CCOc1ccc(S(=O)(=O)N(C(=O)c2ccco2)c2cc3sc(=O)oc3c3ccccc23)cc1` here?
Answer: The Potency was inconclusive [inhibitor, partial curve].

Question: `Oc1[nH]c(=S)sc1C=C1N=c2ccccc2=N1` was tested. Which Potency did it give?
Answer: The Potency was inconclusive [inhibitor, partial curve].

Question: For `CC(C)(C)c1ccc(C(=O)N/C(=C\c2ccco2)C(=O)Nc2ccccc2C(=O)O)cc1`, which Potency is on record?
Answer: The Potency was “inactive”.

Question: `Cc1ccc(NNS(=O)(=O)c2ccc(C)cc2)cc1` was tested. Which Potency did it give?
Answer: Its Potency is inconclusive [inhibitor, full curve].

Question: Which Potency does the source give for `Cc1ccc2cc(CN(CC(C)C)C(=O)C3CCCO3)c(=O)[nH]c2c1` (stereo not drawn) here?
Answer: The Potency was “inactive”.

Question: For `CCOC(=O)C1C(=O)CC(C)(O)C(C(=O)OCC)C1c1ccc(Br)o1` (stereo not drawn), which Potency is on record?
Answer: Its Potency is “inactive”.

Question: With `CN(C)C(=S)N=Nc1[nH]c2ccccc2c1O` as the molecule, how does the Potency read?
Answer: Its Potency is active: 6.31 µM.

Question: `CN(C)c1cccc2c(C=C(C#N)C#N)ccc(N(C)C)c12` was tested. Which Potency did it give?
Answer: Its Potency is inconclusive [inhibitor, full curve].

Question: With `CC1=C(C(N)=O)C(c2ccccc2[N+](=O)[O-])n2ncnc2N1` (stereo not drawn) as the molecule, how does the Potency read?
Answer: The Potency was inconclusive [inhibitor, single point].

Question: Which Potency does the source give for `c1ccc(Cc2nn3c(C4COc5ccccc5O4)nnc3s2)cc1` (stereo not drawn) here?
Answer: The Potency was inconclusive [inhibitor, partial curve].

Question: `Cc1cc(=O)c2c(o1)C(=O)c1occc1C2=O` was tested. Which Potency did it give?
Answer: The Potency was inconclusive [inhibitor, partial curve].

Question: `Cc1ccc(S(=O)(=O)/N=C2/C=C(C3C(=O)CC(C)(C)CC3=O)C(=O)c3ccccc32)cc1` was tested. Which Potency did it give?
Answer: Its Potency is “inactive”.

Question: For `CCOCCCNC1=C(Cl)C(=O)c2ccccc2C1=O`, which Potency is on record?
Answer: Its Potency is inconclusive [inhibitor, partial curve].

Question: How did the Potency turn out when `COc1ccc(S(=O)(=O)N2CCN(CC(=O)c3ccc(O)c(O)c3)CC2)cc1` was run?
Answer: The Potency was inconclusive [inhibitor, partial curve].

Question: Which Potency does the source give for `CC[n+]1ccc(/C=C/c2ccc(N(C)C)cc2)c2ccccc21` here?
Answer: The Potency was “inactive”.

Question: Which Potency does the source give for `O=C(O)c1cc(N=Nc2c(O)ccc3ccccc23)cc(C(=O)O)c1` here?
Answer: Its Potency is active: 12.6 µM.

Question: With `COc1cccc(Nc2ccc(N3CCCCC3)cc2)c1OC` as the molecule, how does the Potency read?
Answer: Its Potency is inconclusive [inhibitor, full curve].

Question: For `CCOC(=O)c1sc(N/N=C/c2ccccc2)nc1C`, which Potency is on record?
Answer: Its Potency is active: 28.2 µM.

Question: `CN(C)c1ccc(/C=C/c2ccc3c4ccccc4ccc3[n+]2-c2ccccc2)cc1` was tested. Which Potency did it give?
Answer: The Potency was “inactive”.

Question: For `O=C1S/C(=C\c2ccc(N3CCOCC3)o2)C(=O)N1c1ccccc1`, which Potency is on record?
Answer: The Potency was inconclusive [inhibitor, single point].

Question: Which Potency does the source give for `O=C(CCSCCC(=O)NCc1ccco1)NCc1ccco1` here?
Answer: The Potency was inconclusive [inhibitor, partial curve].

Question: How did the Potency turn out when `O=C(c1ccc2ncsc2c1)N1CCN(c2ccc(O)cc2)CC1` was run?
Answer: Its Potency is inconclusive [inhibitor, partial curve].

Question: For `CC[n+]1c(/C=C2/C=C(C)CC(C)C2)sc2ccccc21` (stereo not drawn), which Potency is on record?
Answer: Its Potency is inconclusive [inhibitor, single point].

Question: `COc1ccc2[nH]c3c4c(ccc3c2c1)C(=O)C=CC4=O` was tested. Which Potency did it give?
Answer: The Potency was inconclusive [inhibitor, full curve].

Question: Which Potency does the source give for `Cc1[nH]cnc1C(=O)N/N=C/c1c(Cl)cccc1Cl` here?
Answer: The Potency was “inactive”.

Question: Which Potency does the source give for `COc1ccc(S(=O)NC2CCCCC2)c(OC)c1C` (stereo not drawn) here?
Answer: Its Potency is active: 20 µM.

Question: How did the Potency turn out when `CCOC(=O)C1=C(C)c2ccccc2N(C(=O)OC)C1(C)C(=O)OCC` (stereo not drawn) was run?
Answer: Its Potency is active: 39.8 µM.

Question: With `O=C(CN1CCN(c2ccc(O)cc2)CC1)Nc1cc(S(=O)(=O)N2CCCC2)ccc1Cl` as the molecule, how does the Potency read?
Answer: Its Potency is active: 31.6 µM.

Question: `CC1C=CCC2C(=O)N(c3cccc(C(=O)NCc4ccccc4)c3)C(=O)C12` (stereo not drawn) was tested. Which Potency did it give?
Answer: Its Potency is inconclusive [inhibitor, partial curve].

Question: `Cn1ncc(Br)c1C(=O)NC(=S)N1CCN(c2ccccn2)CC1` was tested. Which Potency did it give?
Answer: Its Potency is active: 31.6 µM.

Question: How did the Potency turn out when `Cc1cccc(OCC(=O)NC(=S)NNC(=O)c2ccncc2)c1` was run?
Answer: The Potency was active: 5.62 µM.
